Laboratory results reported in publication PMC4336329 (PLoS ONE, 2015).
In all, about 310,000 compounds went through this assay and about 2,200 (0.71%) showed an effect of 50% or more. Effects have a minus sign here. Some of the results follow.

Target: human ether-à-go-go-related gene (hERG) potassium channel (human, UniProt Q12809)
Assay: primary screen, population patch clamp on CHO cells stably expressing hERG

human ether-à-go-go-related gene (hERG) potassium channel, sequence (Q12809 whole entry, looked up): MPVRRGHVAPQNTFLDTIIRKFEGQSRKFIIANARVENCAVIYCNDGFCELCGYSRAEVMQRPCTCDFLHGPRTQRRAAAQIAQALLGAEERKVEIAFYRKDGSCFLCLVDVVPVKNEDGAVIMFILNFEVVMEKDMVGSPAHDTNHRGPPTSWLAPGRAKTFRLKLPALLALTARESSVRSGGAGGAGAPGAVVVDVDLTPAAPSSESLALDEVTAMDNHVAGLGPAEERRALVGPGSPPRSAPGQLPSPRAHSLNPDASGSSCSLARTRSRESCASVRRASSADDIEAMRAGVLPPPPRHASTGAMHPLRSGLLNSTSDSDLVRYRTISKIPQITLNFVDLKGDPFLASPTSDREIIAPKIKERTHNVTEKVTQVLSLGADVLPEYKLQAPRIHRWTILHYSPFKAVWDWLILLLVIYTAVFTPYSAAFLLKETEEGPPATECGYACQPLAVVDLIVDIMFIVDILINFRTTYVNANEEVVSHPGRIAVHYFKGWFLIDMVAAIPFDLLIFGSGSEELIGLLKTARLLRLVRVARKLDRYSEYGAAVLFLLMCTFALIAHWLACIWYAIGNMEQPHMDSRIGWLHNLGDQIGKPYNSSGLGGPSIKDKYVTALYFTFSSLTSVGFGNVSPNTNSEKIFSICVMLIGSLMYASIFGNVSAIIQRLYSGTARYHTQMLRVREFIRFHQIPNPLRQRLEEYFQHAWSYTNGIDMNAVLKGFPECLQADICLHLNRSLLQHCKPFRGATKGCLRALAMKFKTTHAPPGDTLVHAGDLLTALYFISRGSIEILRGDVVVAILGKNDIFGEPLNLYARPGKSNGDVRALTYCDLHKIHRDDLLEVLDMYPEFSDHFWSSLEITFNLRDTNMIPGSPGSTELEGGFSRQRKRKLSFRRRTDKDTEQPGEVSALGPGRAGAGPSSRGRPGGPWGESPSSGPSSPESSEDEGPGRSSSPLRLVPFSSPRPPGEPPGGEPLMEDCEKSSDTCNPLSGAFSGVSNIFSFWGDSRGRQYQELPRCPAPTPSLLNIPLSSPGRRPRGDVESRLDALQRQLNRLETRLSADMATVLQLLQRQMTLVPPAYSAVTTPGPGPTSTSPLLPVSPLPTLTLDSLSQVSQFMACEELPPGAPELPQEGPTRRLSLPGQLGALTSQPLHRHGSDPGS

Row | SMILES | hERG current change (%, negative = inhibition) at 1uM [%]
1 | Cc1ccc(N(Cc2ccccc2)C(=O)c2cccc(F)c2)cc1 | 16.8
2 | CC(=O)Nc1cccc(NC(=O)CSc2ccc(-c3cccnc3)nn2)c1 | 10.8
3 | O=[N+]([O-])c1cccc(S(=O)(=O)NCCCn2ccnc2)c1 | 0.375
4 | Cc1oc(-c2cccc(Cl)c2)nc1CN1CCC(C(=O)N2CCN(c3ccccn3)CC2)CC1 | -44.6
5 | Cc1cc(C)cc(NC(=O)c2ccc(S(=O)(=O)NCc3cccnc3)cc2)c1 | 9.11
6 | COc1cccc2c1-c1c(C(=O)O)cccc1C2=O | 9.72
7 | O=C1N=C(N2CCN(c3cccc4ccccc34)CC2)S/C1=C/c1cccs1 | 4.84
8 | CC1=CC(=C(C#N)C#N)C=C(C)N1CCN1CCNCC1 | 2.5
9 | CCC(C)NS(=O)(=O)c1ccc(NS(C)(=O)=O)cc1 (stereo not drawn) | 6.28
10 | Cc1cc2ncc(S(=O)(=O)c3ccccc3)c(N)n2n1 | 5.52
11 | CC(O)C(NC(=O)OCc1ccccc1)C(=O)OCc1ccccc1 (stereo not drawn) | 5.3
12 | COc1cccc(/C=C/C(=O)OCC(=O)Nc2ccc3[nH]c(=O)[nH]c3c2)c1OC | -1.71
13 | COc1ccc(CCNC(=O)c2cc(S(=O)(=O)N(C)C)ccc2N2CCCC2)cc1 | 19.3
14 | CCOC(=O)C1CCCN(C(=O)c2cc3c(-c4cccc(OC)c4)nn(C)c3s2)C1 (stereo not drawn) | 2.57
15 | N#C/C(=C\c1ccccc1)C(=O)NC1CC1 | 12.6
16 | COc1ccc(CNC(=O)c2ccc3c(c2)NC(=O)C(C)S3)cc1 (stereo not drawn) | 11.6
17 | CCOC(=O)c1sc2nc(CSc3ccccc3)nc(NCCN(C)C)c2c1C | -13.4
18 | N#Cc1ccc(C(=O)Nc2ccc(S(=O)(=O)NC3=NCCCCC3)cc2)cc1 | 6.13
19 | c1ccc2c(c1)ccc1nnc(SCc3ccc4c(c3)OCO4)n12 | 6.04

Row | SMILES | hERG current change (%, negative = inhibition) at 1uM [%]
20 | CSc1nc(=O)n2cc(C)ccc2n1 | 11.3
21 | CC(C)(C)c1csc(CS(=O)(=O)c2ccccn2)n1 | -2.07
22 | Cc1sc(NC(=O)c2cc(-c3ccc(Cl)cc3)nc3ccccc23)c(C(N)=O)c1C | 8.72
23 | Cc1ccc(C)c(C(=O)N2CCC(n3nccc3NC(=O)C3CC3)CC2)c1 | -0.929
24 | COc1ccc(F)cc1CN1CCN(C(=O)CCC(=O)Nc2nnc(C3CCCCC3)s2)CC1 | 15.7
25 | O=C1CC(c2ccccc2)CC(O)=C1C=NCc1ccc(Cl)c(Cl)c1 (stereo not drawn) | 7.52
26 | Cc1ccc(C(=O)Nc2ccc3c(c2)OCO3)cc1NC(=O)c1ccco1 | 5.58
27 | COc1cccc(N=C2SC(C(=O)Nc3ccc(F)cc3)CC(=O)N2C)c1 (stereo not drawn) | 4.9
28 | O=C(NC(=S)Nc1ccc(N2CCOCC2)c(Cl)c1)c1sc2ccccc2c1Cl | 4.59
29 | Cc1cccc(C(=O)NCc2nnc(SCC(=O)Nc3nnc(C)s3)n2C)c1 | 7.66
30 | OCC1(CCCc2ccccc2)CCN(Cc2ccc(F)cc2)CC1 | -25.3
31 | Cc1ccc(C2NC(=O)c3c(sc4c3CCN(C)C4)N2)o1 (stereo not drawn) | 1
32 | COc1cccc(C(=O)Nc2cccc(-c3ccccc3)c2)c1 | 17
33 | O=C(COC(=O)c1cncc(Br)c1)NCc1ccc2c(c1)OCO2 | 13.6
34 | Cc1ccc(NC(=O)c2ccc(-c3nn(C)c(=O)c4ccccc34)cc2)c(C)c1 | -3.98
35 | C[n+]1ccccc1N1CCN(c2ccccc2Cl)CC1.[I-] | 5.98
36 | O=C(OCC(=O)N1CCCC1)c1cncc(Br)c1 | 17.2
37 | N#Cc1c(NC(=O)C2CC(c3ccccc3O)=NO2)sc2c1CCC2 (stereo not drawn) | 3.85
38 | O=C(NCc1ccccn1)c1cc(-c2ccc(Cl)cc2)nc2ccccc12 | 3.18

Row | SMILES | hERG current change (%, negative = inhibition) at 1uM [%]
39 | COC(=O)Nc1ccc(S(=O)(=O)NCc2ccccn2)cc1 | 3.89
40 | CCCN1CCC(NC23CC4CC(CC(C4)C2)C3)CC1 | 18
41 | CCC(Oc1ccc(C)cc1)C(=O)Nc1ccc(S(=O)(=O)Nc2nccs2)cc1 (stereo not drawn) | 10.4
42 | O=C(O)CNC(=O)CCn1nnc2ccccc2c1=O | 9.97
43 | CCCCN(CC)Cc1ccc(CNC(=O)Nc2ccc(OCC)cc2)o1 | 0.485
44 | CC(=O)Nc1ccc(C2=NN(c3ccccc3)C(c3cccs3)C2)cc1 (stereo not drawn) | 22.3
45 | Nn1c(SCC(=O)Nc2ccc(F)cc2)nnc1-c1ccccn1 | -16.6
46 | O=C(NCC1CC1)NC(=O)c1c(F)cccc1Cl | 11.5
47 | COc1ccc(S(=O)(=O)NCC2CCCN(Cc3ccccc3Cl)C2)cc1 (stereo not drawn) | 2.59
48 | CCOc1ccc(NC(=O)C(C)Sc2nnc(C)n2C)cc1 (stereo not drawn) | -3.53
49 | CC(=O)CCc1c(C)[nH]c2ccc(NC(C)=O)cc2c1=O | 12
50 | Cn1c(NC(=O)CC2CCCCC2)cc(=O)n(C)c1=O | 6.29
51 | Cc1cc(=O)c2cc(Br)ccc2[nH]1 | 11.2
52 | C[N+](C)(CCOc1ccccc1)Cc1ccccc1.O=C(O)c1cc2ccccc2c(Br)c1[O-] | 7.99
53 | Cc1ccc(CN(C(=O)c2csnn2)C(C(=O)NC2CCCC2)c2ccc(C)o2)cc1 (stereo not drawn) | 4.17
54 | O=C(Nc1ccc(C(=O)N2CCN(c3ccccc3)CC2)cc1)C1=CSCCO1 | 5.72
55 | Cc1cccc(NC(=O)C2CCN(C(=O)[C@@H]3Cc4ccccc4CN3)CC2)c1 | -31.3
56 | COc1ccc(Cc2nc3ccc(C(=O)NCCSC)cc3o2)cc1 | 9.5
57 | O=C(NCc1ccc(F)cc1)c1cccc(NC2=NC3CS(=O)(=O)CC3S2)c1 (stereo not drawn) | 0.746
